According to the supplement of paper PMC4967469:
A lower IC50 marks a more sensitive line; a fit beyond the top or the lowest dose is shown as a bound at that dose. AUC sums up the same curve from the lowest dose to the 256-fold higher top dose; the more sensitive the line, the further below 1. Where the top dose is marked as inferred, it was calculated from the reported fits. For part of these data: Where an entry number is given, a second screen of the drug exists; the two often differ.

Assays:
Assay in all cases: Viability of human cancer cell lines after 72 h of drug (GDSC screen)
[1] = compound: Cn1ncnc1[C@H]1c2n[nH]c(=O)c3cc(F)cc(c23)N[C@@H]1c1ccc(F)cc1 [BMN-673]; settings: top dose 10 µM; top dose inferred
Method: (§1)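 Human cancer cell lines in 384-well plates, medium with 10% serum, drug for 72 h over a 256-fold dose range (nine 2-fold or five 4-fold steps up to the top dose). Adherent lines were fixed and stained with the nucleic acid dye Syto60, suspension lines read with resazurin; signal relative to control wells, capped at 0 and 100%. One two-parameter sigmoid per drug and line, fitted in a mixed model over all curves with the slope shared within a line.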

[2] = compound: Cc1cc([C@@H](C)Nc2ccccc2C(=O)O)c2nc(N3CCOCC3)cc(=O)n2c1 [AZD6482]
Method: as §1

[3] = compound: COc1cc(C(=O)NC2CCN(C)CC2)ccc1Nc1ncc2c(n1)N(C1CCCC1)CCC(=O)N2C(C)C [XMD11-85h]; settings: top dose 10 µM; top dose inferred
Method: as §1

[4] = compound: NS(=O)(=O)OC[C@@H]1C[C@@H](n2ccc3c(N[C@H]4CCc5ccccc54)ncnc32)C[C@@H]1O [MLN4924]; settings: top dose 1 µM; top dose inferred
Method: as §1

[5] = top dose 5 µM, screen: GDSC drug entry 1066, top dose inferred
[6] = top dose 5.12 µM, screen: GDSC drug entry 156

NCI-H508 (large intestine, semi-adherent)
AUC [1]: 0.947
IC50 [1]: > 10 µM
AUC [2, 5]: 0.832
IC50 [2, 5]: > 5 µM
AUC [3]: 0.89
IC50 [3]: > 10 µM
AUC [4]: 0.928
IC50 [4]: > 1 µM

NCI-H524 (small cell lung carcinoma, suspension)
AUC [1]: 0.962
IC50 [1]: > 10 µM
AUC [2, 5]: 0.977
IC50 [2, 5]: > 5 µM
AUC [2, 6]: 0.988
IC50 [2, 6]: > 5.12 µM
AUC [3]: 0.963
IC50 [3]: > 10 µM
AUC [4]: 0.979
IC50 [4]: > 1 µM

NCI-H716 (large intestine, suspension)
AUC [1]: 0.979
IC50 [1]: > 10 µM
AUC [2, 6]: 0.98
IC50 [2, 6]: > 5.12 µM
AUC [3]: 0.835
IC50 [3]: 9.09 µM
AUC [4]: 0.979
IC50 [4]: > 1 µM

NCI-H720 (lung carcinoid, suspension)
AUC [1]: 0.99
IC50 [1]: > 10 µM
AUC [2, 5]: 0.977
IC50 [2, 5]: > 5 µM
AUC [2, 6]: 0.992
IC50 [2, 6]: > 5.12 µM
AUC [3]: 0.979
IC50 [3]: > 10 µM
AUC [4]: 0.878
IC50 [4]: 0.865 µM

NCI-H747 (large intestine, adherent)
AUC [1]: 0.897
IC50 [1]: > 10 µM
AUC [2, 6]: 0.894
IC50 [2, 6]: > 5.12 µM
AUC [3]: 0.939
IC50 [3]: > 10 µM
AUC [4]: 0.956
IC50 [4]: > 1 µM

NCI-H810 (large cell lung carcinoma, adherent)
AUC [1]: 0.771
IC50 [1]: 3.68 µM
AUC [2, 6]: 0.963
IC50 [2, 6]: > 5.12 µM
AUC [3]: 0.945
IC50 [3]: > 10 µM
AUC [4]: 0.684
IC50 [4]: 0.199 µM

NCI-H841 (small cell lung carcinoma, adherent)
AUC [1]: 0.83
IC50 [1]: 6.32 µM
AUC [2, 5]: 0.958
IC50 [2, 5]: > 5 µM
AUC [2, 6]: 0.945
IC50 [2, 6]: > 5.12 µM
AUC [3]: 0.982
IC50 [3]: > 10 µM
AUC [4]: 0.728
IC50 [4]: 0.279 µM

NCI-H847 (small cell lung carcinoma, adherent)
AUC [1]: 0.98
IC50 [1]: > 10 µM
AUC [2, 5]: 0.982
IC50 [2, 5]: > 5 µM
AUC [2, 6]: 0.943
IC50 [2, 6]: > 5.12 µM
AUC [3]: 0.962
IC50 [3]: > 10 µM
AUC [4]: 0.415
IC50 [4]: 0.0383 µM

NCI-H1155 (large cell lung carcinoma, suspension)
AUC [1]: 0.782
IC50 [1]: 3.43 µM
AUC [2, 5]: 0.909
IC50 [2, 5]: 4.81 µM
AUC [2, 6]: 0.993
IC50 [2, 6]: > 5.12 µM
AUC [3]: 0.985
IC50 [3]: > 10 µM
AUC [4]: 0.871
IC50 [4]: 0.668 µM

NCI-H1304 (small cell lung carcinoma, suspension)
AUC [1]: 0.981
IC50 [1]: > 10 µM
AUC [2, 5]: 0.971
IC50 [2, 5]: > 5 µM
AUC [2, 6]: 0.958
IC50 [2, 6]: > 5.12 µM
AUC [3]: 0.951
IC50 [3]: > 10 µM
AUC [4]: 0.966
IC50 [4]: > 1 µM

NCI-H1355 (lung adenocarcinoma, adherent)
AUC [1]: 0.808
IC50 [1]: 8.32 µM
AUC [2, 5]: 0.867
IC50 [2, 5]: > 5 µM
AUC [2, 6]: 0.895
IC50 [2, 6]: > 5.12 µM
AUC [3]: 0.929
IC50 [3]: > 10 µM
AUC [4]: 0.851
IC50 [4]: > 1 µM

NCI-H1395 (lung adenocarcinoma, adherent)
AUC [1]: 0.61
IC50 [1]: 1.39 µM
AUC [2, 5]: 0.746
IC50 [2, 5]: 2.05 µM
AUC [2, 6]: 0.938
IC50 [2, 6]: > 5.12 µM
AUC [3]: 0.969
IC50 [3]: > 10 µM
AUC [4]: 0.911
IC50 [4]: > 1 µM

NCI-H1436 (small cell lung carcinoma, suspension)
AUC [1]: 0.982
IC50 [1]: > 10 µM
AUC [2, 5]: 0.892
IC50 [2, 5]: > 5 µM
AUC [2, 6]: 0.944
IC50 [2, 6]: > 5.12 µM
AUC [3]: 0.984
IC50 [3]: > 10 µM
AUC [4]: 0.984
IC50 [4]: > 1 µM

NCI-H1568 (lung adenocarcinoma, adherent)
AUC [1]: 0.872
IC50 [1]: > 10 µM
AUC [2, 5]: 0.862
IC50 [2, 5]: > 5 µM
AUC [2, 6]: 0.898
IC50 [2, 6]: > 5.12 µM
AUC [3]: 0.938
IC50 [3]: > 10 µM
AUC [4]: 0.839
IC50 [4]: 0.942 µM

NCI-H1623 (lung adenocarcinoma, adherent)
AUC [1]: 0.439
IC50 [1]: 0.409 µM
AUC [2, 5]: 0.8
IC50 [2, 5]: 3.08 µM
AUC [2, 6]: 0.927
IC50 [2, 6]: > 5.12 µM
AUC [3]: 0.983
IC50 [3]: > 10 µM
AUC [4]: 0.758
IC50 [4]: 0.419 µM

NCI-H1648 (lung adenocarcinoma, adherent)
AUC [1]: 0.936
IC50 [1]: > 10 µM
AUC [2, 5]: 0.805
IC50 [2, 5]: 2.71 µM
AUC [2, 6]: 0.883
IC50 [2, 6]: > 5.12 µM
AUC [3]: 0.983
IC50 [3]: > 10 µM
AUC [4]: 0.748
IC50 [4]: 0.341 µM

NCI-H1651 (lung adenocarcinoma, adherent)
AUC [1]: 0.321
IC50 [1]: 0.189 µM
AUC [2, 5]: 0.883
IC50 [2, 5]: > 5 µM
AUC [2, 6]: 0.913
IC50 [2, 6]: > 5.12 µM
AUC [3]: 0.982
IC50 [3]: > 10 µM
AUC [4]: 0.851
IC50 [4]: 0.857 µM

NCI-H1688 (small cell lung carcinoma, adherent)
AUC [1]: 0.967
IC50 [1]: > 10 µM
AUC [2, 5]: 0.972
IC50 [2, 5]: > 5 µM
AUC [2, 6]: 0.98
IC50 [2, 6]: > 5.12 µM
AUC [3]: 0.985
IC50 [3]: > 10 µM
AUC [4]: 0.955
IC50 [4]: > 1 µM

NCI-H1770 (non-small cell lung carcinoma, suspension)
AUC [1]: 0.989
IC50 [1]: > 10 µM
AUC [2, 5]: 0.978
IC50 [2, 5]: > 5 µM
AUC [2, 6]: 0.964
IC50 [2, 6]: > 5.12 µM
AUC [3]: 0.99
IC50 [3]: > 10 µM
AUC [4]: 0.992
IC50 [4]: > 1 µM

NCI-H1792 (lung adenocarcinoma, adherent)
AUC [1]: 0.561
IC50 [1]: 0.899 µM
AUC [2, 5]: 0.983
IC50 [2, 5]: > 5 µM
AUC [2, 6]: 0.951
IC50 [2, 6]: > 5.12 µM
AUC [3]: 0.966
IC50 [3]: > 10 µM
AUC [4]: 0.986
IC50 [4]: > 1 µM

NCI-H1915 (large cell lung carcinoma, adherent)
AUC [1]: 0.797
IC50 [1]: 4.8 µM
AUC [2, 5]: 0.988
IC50 [2, 5]: > 5 µM
AUC [2, 6]: 0.965
IC50 [2, 6]: > 5.12 µM
AUC [3]: 0.986
IC50 [3]: > 10 µM
AUC [4]: 0.946
IC50 [4]: > 1 µM

NCI-H1944 (lung adenocarcinoma, adherent)
AUC [1]: 0.802
IC50 [1]: 5.3 µM
AUC [2, 5]: 0.885
IC50 [2, 5]: > 5 µM
AUC [2, 6]: 0.944
IC50 [2, 6]: > 5.12 µM
AUC [3]: 0.944
IC50 [3]: > 10 µM
AUC [4]: 0.923
IC50 [4]: > 1 µM

NCI-H1975 (lung adenocarcinoma, adherent)
AUC [1]: 0.896
IC50 [1]: > 10 µM
AUC [2, 5]: 0.957
IC50 [2, 5]: > 5 µM
AUC [2, 6]: 0.827
IC50 [2, 6]: 3.77 µM
AUC [3]: 0.98
IC50 [3]: > 10 µM
AUC [4]: 0.964
IC50 [4]: > 1 µM

NCI-H1993 (lung adenocarcinoma, adherent)
AUC [1]: 0.938
IC50 [1]: > 10 µM
AUC [2, 5]: 0.824
IC50 [2, 5]: 4.34 µM
AUC [2, 6]: 0.896
IC50 [2, 6]: > 5.12 µM
AUC [3]: 0.978
IC50 [3]: > 10 µM
AUC [4]: 0.975
IC50 [4]: > 1 µM

NCI-H2066 (small cell lung carcinoma, adherent)
AUC [1]: 0.916
IC50 [1]: > 10 µM
AUC [2, 5]: 0.956
IC50 [2, 5]: > 5 µM
AUC [3]: 0.977
IC50 [3]: > 10 µM
AUC [4]: 0.913
IC50 [4]: > 1 µM
